# Measurements reported in the supplement of paper PMC8728848.
# This is one part of the list.
# Columns and labels:
# Assay in all cases: glycan array binding signal (z-score within array); higher = stronger binding
# Conditions in all cases: glycan notation: IUPAC condensed, linker removed
# [1] = biological target: Gal(b1-3)GlcNAc(b1-2)Man(a1-3)[Gal(b1-3)GlcNAc(b1-2)Man(a1-6)]Man(b1-4)GlcNAc(b1-4)[Fuc(a1-6)]GlcNAc
# Procedure, shortened: (§1)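 The Consortium for Functional Glycomics database supplied 3228 glycan arrays, of which those lacking an available protein sequence were dropped. The binding signal, a within-array Z-score, was averaged across arrays of the same protein sequence and across linkers. Negative scores can be read as non-binding.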
# [2] = biological target: Gal(b1-3)GlcNAc(b1-2)Man(a1-3)[GlcNAc(b1-4)][Gal(b1-3)GlcNAc(b1-2)Man(a1-6)]Man(b1-4)GlcNAc(b1-4)GlcNAc
# Procedure, shortened: as §1
# [3] = biological target: Gal(b1-3)GlcNAc(b1-2)[Gal(b1-3)GlcNAc(b1-6)]Man(a1-6)[Gal(b1-3)GlcNAc(b1-2)Man(a1-3)]Man(b1-4)GlcNAc(b1-4)GlcNAc
# Procedure, shortened: as §1
# [4] = biological target: Gal(b1-3)GlcNAc(b1-3)Gal(b1-3)GlcNAc
# Procedure, shortened: as §1
# [5] = biological target: Gal(b1-3)GlcNAc(b1-3)Gal(b1-4)Glc
# Procedure, shortened: as §1
# [6] = biological target: Gal(b1-3)GlcNAc(b1-3)Gal(b1-4)GlcNAc
# Procedure, shortened: as §1
# [7] = biological target: Gal(b1-3)GlcNAc(b1-3)Gal(b1-4)GlcNAc(b1-2)Man(a1-3)[Gal(b1-3)GlcNAc(b1-3)Gal(b1-4)GlcNAc(b1-2)Man(a1-6)]Man(b1-4)GlcNAc(b1-4)GlcNAc
# Procedure, shortened: as §1
# [8] = biological target: Gal(b1-3)GlcNAc(b1-3)Gal(b1-4)GlcNAc(b1-2)[Gal(b1-3)GlcNAc(b1-3)Gal(b1-4)GlcNAc(b1-6)]Man(a1-6)[Gal(b1-3)GlcNAc(b1-3)Gal(b1-4)GlcNAc(b1-2)Man(a1-3)]Man(b1-4)GlcNAc(b1-4)[Fuc(a1-6)]GlcNAc
# Procedure, shortened: as §1
# [9] = biological target: Gal(b1-3)GlcNAc(b1-3)Gal(b1-4)GlcNAc(b1-3)Gal(b1-4)GlcNAc(b1-2)[Gal(b1-3)GlcNAc(b1-3)Gal(b1-4)GlcNAc(b1-3)Gal(b1-4)GlcNAc(b1-6)]Man(a1-6)[Gal(b1-3)GlcNAc(b1-3)Gal(b1-4)GlcNAc(b1-3)Gal(b1-4)GlcNAc(b1-2)Man(a1-3)]Man(b1-4)GlcNAc(b1-4)[Fuc(a1-6)]GlcNAc
# Procedure, shortened: as §1
# [10] = biological target: Gal(b1-3)GlcNAc(b1-3)Gal(b1-4)GlcNAc(b1-6)[Gal(b1-3)GlcNAc(b1-3)]Gal(b1-4)Glc
# Procedure, shortened: as §1
# [11] = biological target: Gal(b1-3)GlcNAc(b1-3)Gal(b1-4)[Fuc(a1-3)]GlcNAc
# Procedure, shortened: as §1
# [12] = biological target: Gal(b1-3)GlcNAc(b1-3)Gal(b1-4)[Fuc(a1-3)]GlcNAc(b1-6)[Gal(b1-3)GlcNAc(b1-3)]Gal(b1-4)Glc
# Procedure, shortened: as §1
# [13] = biological target: Gal(b1-3)GlcNAc(b1-3)GalNAc
# Procedure, shortened: as §1
# [14] = biological target: Gal(b1-3)GlcNAc(b1-6)Gal(b1-4)GlcNAc
# Procedure, shortened: as §1
# [15] = biological target: Gal(b1-3)GlcNAc(b1-6)GalNAc
# Procedure, shortened: as §1
# [16] = biological target: Gal(b1-3)GlcNAc(b1-6)[Gal(b1-3)]GalNAc
# Procedure, shortened: as §1
# Gal(b1-3)GlcNAc6S = biological target: Gal(b1-3)GlcNAc6S
# Procedure, shortened: as §1
# [17] = biological target: Gal(b1-3)[Fuc(a1-4)]GlcNAc
# Procedure, shortened: as §1
# [18] = biological target: Gal(b1-3)[Fuc(a1-4)]GlcNAc(b1-2)Man
# Procedure, shortened: as §1
# [19] = biological target: Gal(b1-3)[Fuc(a1-4)]GlcNAc(b1-2)Man(a1-3)[Gal(b1-3)[Fuc(a1-4)]GlcNAc(b1-2)Man(a1-6)]Man(b1-4)GlcNAc(b1-4)[Fuc(a1-6)]GlcNAc
# Procedure, shortened: as §1
# [20] = biological target: Gal(b1-3)[Fuc(a1-4)]GlcNAc(b1-3)Gal(b1-3)[Fuc(a1-4)]GlcNAc
# Procedure, shortened: as §1
# [21] = biological target: Gal(b1-3)[Fuc(a1-4)]GlcNAc(b1-3)Gal(b1-4)[Fuc(a1-3)]GlcNAc
# Procedure, shortened: as §1
# [22] = biological target: Gal(b1-3)[Fuc(a1-4)]GlcNAc(b1-6)GalNAc
# Procedure, shortened: as §1
# [23] = biological target: Gal(b1-3)[GlcNAc(b1-6)]GalNAc
# Procedure, shortened: as §1
# [24] = biological target: Gal(b1-3)[Neu5Ac(a2-6)]GalNAc
# Procedure, shortened: as §1
# [25] = biological target: Gal(b1-3)[Neu5Ac(a2-6)]GlcNAc(b1-4)Gal(b1-4)Glc
# Procedure, shortened: as §1
# [26] = biological target: Gal(b1-3)[Neu5Ac(b2-6)]GalNAc
# Procedure, shortened: as §1
# Gal(b1-4)Gal = biological target: Gal(b1-4)Gal
# Procedure, shortened: as §1
# [27] = biological target: Gal(b1-4)GalNAc(a1-3)[Fuc(a1-2)]Gal(b1-4)GlcNAc
# Procedure, shortened: as §1
# [28] = biological target: Gal(b1-4)GalNAc(b1-3)[Fuc(a1-2)]Gal(b1-4)GlcNAc
# Procedure, shortened: as §1
# Gal(b1-4)Glc = biological target: Gal(b1-4)Glc
# Procedure, shortened: as §1
# Gal(b1-4)Glc6S = biological target: Gal(b1-4)Glc6S
# Procedure, shortened: as §1
# Gal(b1-4)GlcNAc = biological target: Gal(b1-4)GlcNAc
# Procedure, shortened: as §1
# [29] = biological target: Gal(b1-4)GlcNAc(a1-6)Gal(b1-4)GlcNAc
# Procedure, shortened: as §1
# Gal(b1-4)GlcNAc(b1-2)Man = biological target: Gal(b1-4)GlcNAc(b1-2)Man
# Procedure, shortened: as §1
# [30] = biological target: Gal(b1-4)GlcNAc(b1-2)Man(a1-3)Man(b1-4)GlcNAc(b1-4)GlcNAc
# Procedure, shortened: as §1
# [31] = biological target: Gal(b1-4)GlcNAc(b1-2)Man(a1-3)[Gal(b1-4)GlcNAc(b1-2)Man(a1-6)]Man(b1-4)GlcNAc(b1-4)GlcNAc
# Procedure, shortened: as §1
# [32] = biological target: Gal(b1-4)GlcNAc(b1-2)Man(a1-3)[Gal(b1-4)GlcNAc(b1-2)Man(a1-6)]Man(b1-4)GlcNAc(b1-4)[Fuc(a1-6)]GlcNAc
# Procedure, shortened: as §1
# [33] = biological target: Gal(b1-4)GlcNAc(b1-2)Man(a1-3)[Gal(b1-4)GlcNAc(b1-2)Man(a1-6)][Gal(b1-4)GlcNAc(b1-4)]Man(b1-4)GlcNAc(b1-4)[Fuc(a1-6)]GlcNAc
# Procedure, shortened: as §1
# [34] = biological target: Gal(b1-4)GlcNAc(b1-2)Man(a1-3)[Gal(b1-4)GlcNAc(b1-2)Man(a1-6)][GlcNAc(b1-4)]Man(b1-4)GlcNAc(b1-4)[Fuc(a1-6)]GlcNAc
# Procedure, shortened: as §1
# [35] = biological target: Gal(b1-4)GlcNAc(b1-2)Man(a1-3)[GlcNAc(b1-2)Man(a1-6)]Man(b1-4)GlcNAc(b1-4)GlcNAc
# Procedure, shortened: as §1
# [36] = biological target: Gal(b1-4)GlcNAc(b1-2)Man(a1-3)[GlcNAc(b1-4)][Gal(b1-4)GlcNAc(b1-2)Man(a1-6)]Man(b1-4)GlcNAc(b1-4)GlcNAc
# Procedure, shortened: as §1
# [37] = biological target: Gal(b1-4)GlcNAc(b1-2)Man(a1-3)[Man(a1-6)]Man(b1-4)GlcNAc(b1-4)GlcNAc
# Procedure, shortened: as §1
# [38] = biological target: Gal(b1-4)GlcNAc(b1-2)Man(a1-6)Man(b1-4)GlcNAc(b1-4)GlcNAc
# Procedure, shortened: as §1
# [39] = biological target: Gal(b1-4)GlcNAc(b1-2)Man(a1-6)[GlcNAc(b1-2)Man(a1-3)]Man(b1-4)GlcNAc(b1-4)GlcNAc
# Procedure, shortened: as §1
binder,measurement,setting,value
Pwp4 (Candida glabrata) (protein) MGSSHHHHHHSSGLVPRGSHMASVGNPITVSNVCSFPKNWHRTAGFRALTARLGIGIQSDSYKELLNYPGTFQLTTQQSSTTKPNFQISGLVGNIYGLTIVPSYLLVELTGYFVPPVSGEYTFSLEGSDDAAIIFIANPSTFKCGHVEDWPTAYDNDVTVTESIHATRTIYMIEGVAYPIRIAYYNGLSLGKLQASFTDPEGVKRVDWNGYIWRYDSCDTCSYV,glycan array binding signal (z-score),[1],-0.447
same,glycan array binding signal (z-score),[2],-0.351
same,glycan array binding signal (z-score),[3],-0.162
same,glycan array binding signal (z-score),[4],-0.51
same,glycan array binding signal (z-score),[5],-0.337
same,glycan array binding signal (z-score),[6],-0.356
same,glycan array binding signal (z-score),[7],-0.165
same,glycan array binding signal (z-score),[8],5.18
same,glycan array binding signal (z-score),[9],2.9
same,glycan array binding signal (z-score),[10],-0.293
same,glycan array binding signal (z-score),[11],-0.333
same,glycan array binding signal (z-score),[12],-0.578
same,glycan array binding signal (z-score),[13],-0.673
same,glycan array binding signal (z-score),[14],-0.372
same,glycan array binding signal (z-score),[15],0.773
same,glycan array binding signal (z-score),[16],-0.485
same,glycan array binding signal (z-score),Gal(b1-3)GlcNAc6S,-0.565
same,glycan array binding signal (z-score),[17],-0.533
same,glycan array binding signal (z-score),[18],-0.225
same,glycan array binding signal (z-score),[19],0.258
same,glycan array binding signal (z-score),[20],0.756
same,glycan array binding signal (z-score),[21],0.126
same,glycan array binding signal (z-score),[22],2.48
same,glycan array binding signal (z-score),[23],-0.506
same,glycan array binding signal (z-score),[24],0.185
same,glycan array binding signal (z-score),[25],-0.479
same,glycan array binding signal (z-score),[26],0.685
same,glycan array binding signal (z-score),Gal(b1-4)Gal,-0.601
same,glycan array binding signal (z-score),[27],-0.29
same,glycan array binding signal (z-score),[28],-0.019
same,glycan array binding signal (z-score),Gal(b1-4)Glc,-0.5
same,glycan array binding signal (z-score),Gal(b1-4)Glc6S,-0.361
same,glycan array binding signal (z-score),Gal(b1-4)GlcNAc,-0.41
same,glycan array binding signal (z-score),[29],0.19
same,glycan array binding signal (z-score),Gal(b1-4)GlcNAc(b1-2)Man,-0.565
same,glycan array binding signal (z-score),[30],0.493
same,glycan array binding signal (z-score),[31],-0.421
same,glycan array binding signal (z-score),[32],-0.374
same,glycan array binding signal (z-score),[33],-0.133
same,glycan array binding signal (z-score),[34],-0.612
same,glycan array binding signal (z-score),[35],-0.429
same,glycan array binding signal (z-score),[36],-0.7
same,glycan array binding signal (z-score),[37],-0.055
same,glycan array binding signal (z-score),[38],-0.472
same,glycan array binding signal (z-score),[39],-0.564
